{"source": "patent US20250295610A1", "about": "“NEUROPROTECTIVE AGENTS FOR USE IN THE TREATMENT OF OPTIC NEUROPATHIES” (The Board of Trustees of the Leland Stanford Junior …, priority 2021, published 2025)", "tested_on": "RGC somata and axons, mouse SOHU glaucoma model", "conditions": "3wpi"}
{"smiles": "CNCCCC12CCC(c3ccccc31)c1ccccc12", "note": "[maprotiline]", "values": [{"measurement": "axon protection by TEM analysis of ON cross sections and CTB tracing in wholemount ONs", "setting": "SOHU mouse", "result": "confirmed the axon protection effect"}, {"measurement": "RGC soma survival", "setting": "SOHU mouse, retina wholemounts, vs DMSO", "result": "significantly greater"}, {"measurement": "GCC thickness by OCT", "setting": "SOHU mouse, retrobulbar 50 μl of 2 mM day 0 and 10 + i.p. 15 mg/kg daily, vs DMSO", "result": "significantly increased"}, {"measurement": "axon survival", "setting": "SOHU mouse, semi-thin ON sections, vs DMSO", "result": "significantly greater"}, {"measurement": "normal IOP", "setting": "naïve mice", "result": "did not affect"}]}
